From the supplement of paper PMC8728848
This is one part of the list.

How the values were obtained:
Test in all cases: glycan array binding signal (z-score within array); higher = stronger binding
Details in all cases: glycan notation: IUPAC condensed, linker removed
[1] = target: Fuc(a1-2)[GalNAc(a1-3)]Gal(b1-3)GlcNAc(b1-3)GalNAc
Procedure, shortened: (§1)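 Columns mapping to the same glycan were averaged after glycan names were converted to IUPAC-condensed notation. The data come from 3228 arrays in the Consortium for Functional Glycomics database, limited to those with an available protein sequence. Binding is reported as a within-array Z-score averaged across arrays of one protein sequence and across linkers.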

[2] = target: Fuc(a1-2)[GalNAc(a1-3)]Gal(b1-3)GlcNAc(b1-6)GalNAc
Procedure, shortened: as §1

[3] = target: Fuc(a1-2)[GalNAc(a1-3)]Gal(b1-4)Glc
Procedure, shortened: as §1

[4] = target: Fuc(a1-2)[GalNAc(a1-3)]Gal(b1-4)GlcNAc
Procedure, shortened: as §1

[5] = target: Fuc(a1-2)[GalNAc(a1-3)]Gal(b1-4)GlcNAc(b1-2)Man
Procedure, shortened: as §1

[6] = target: Fuc(a1-2)[GalNAc(a1-3)]Gal(b1-4)GlcNAc(b1-2)Man(a1-3)[Fuc(a1-2)[GalNAc(a1-3)]Gal(b1-4)GlcNAc(b1-2)Man(a1-6)]Man(b1-4)GlcNAc(b1-4)GlcNAc
Procedure, shortened: as §1

[7] = target: Fuc(a1-2)[GalNAc(a1-3)]Gal(b1-4)GlcNAc(b1-2)Man(a1-3)[Fuc(a1-2)[GalNAc(a1-3)]Gal(b1-4)GlcNAc(b1-2)Man(a1-6)]Man(b1-4)GlcNAc(b1-4)[Fuc(a1-6)]GlcNAc
Procedure, shortened: as §1

[8] = target: Fuc(a1-2)[GalNAc(a1-3)]Gal(b1-4)GlcNAc(b1-3)Gal(b1-4)GlcNAc
Procedure, shortened: as §1

[9] = target: Fuc(a1-2)[GalNAc(a1-3)]Gal(b1-4)GlcNAc(b1-3)Gal(b1-4)GlcNAc(b1-3)Gal(b1-4)GlcNAc
Procedure, shortened: as §1

[10] = target: Fuc(a1-2)[GalNAc(a1-3)]Gal(b1-4)GlcNAc(b1-3)GalNAc
Procedure, shortened: as §1

[11] = target: Fuc(a1-2)[GalNAc(a1-3)]Gal(b1-4)GlcNAc(b1-3)[Fuc(a1-2)[GalNAc(a1-3)]Gal(b1-4)GlcNAc(b1-6)]GalNAc
Procedure, shortened: as §1

[12] = target: Fuc(a1-2)[GalNAc(a1-3)]Gal(b1-4)GlcNAc(b1-6)GalNAc
Procedure, shortened: as §1

[13] = target: Fuc(a1-2)[GalNAc(a1-3)]Gal(b1-4)[Fuc(a1-3)]GlcNAc
Procedure, shortened: as §1

[14] = target: Fuc(a1-2)[GalNAc(a1-3)]Gal(b1-4)[Fuc(a1-3)]GlcNAc(b1-3)GalNAc
Procedure, shortened: as §1

[15] = target: Fuc(a1-2)[GalNAc(a1-4)]Gal(b1-4)GlcNAc
Procedure, shortened: as §1

[16] = target: Fuc(a1-2)[GalNAc(b1-3)]Gal
Procedure, shortened: as §1

Fuc(a1-3)GlcNAc = target: Fuc(a1-3)GlcNAc
Procedure, shortened: as §1

[17] = target: Fuc(a1-3)[Gal(b1-4)]Glc6S
Procedure, shortened: as §1

[18] = target: Fuc(a1-3)[Gal(b1-4)]GlcNAc
Procedure, shortened: as §1

[19] = target: Fuc(a1-3)[Gal(b1-4)]GlcNAc(b1-2)Man
Procedure, shortened: as §1

[20] = target: Fuc(a1-3)[Gal(b1-4)]GlcNAc(b1-2)Man(a1-3)[Fuc(a1-3)[Gal(b1-4)]GlcNAc(b1-2)Man(a1-6)]Man(b1-4)GlcNAc(b1-4)GlcNAc
Procedure, shortened: as §1

[21] = target: Fuc(a1-3)[Gal(b1-4)]GlcNAc(b1-2)Man(a1-3)[Fuc(a1-3)[Gal(b1-4)]GlcNAc(b1-2)Man(a1-6)]Man(b1-4)GlcNAc(b1-4)[Fuc(a1-6)]GlcNAc
Procedure, shortened: as §1

[22] = target: Fuc(a1-3)[Gal(b1-4)]GlcNAc(b1-3)Gal(b1-3)[Fuc(a1-4)]GlcNAc
Procedure, shortened: as §1

[23] = target: Fuc(a1-3)[Gal(b1-4)]GlcNAc(b1-3)Gal(b1-4)[Fuc(a1-3)]GlcNAc
Procedure, shortened: as §1

[24] = target: Fuc(a1-3)[Gal(b1-4)]GlcNAc(b1-3)Gal(b1-4)[Fuc(a1-3)]GlcNAc(b1-3)Gal(b1-4)[Fuc(a1-3)]GlcNAc
Procedure, shortened: as §1

[25] = target: Fuc(a1-3)[Gal(b1-4)]GlcNAc(b1-3)GalNAc
Procedure, shortened: as §1

[26] = target: Fuc(a1-3)[Gal(b1-4)]GlcNAc(b1-6)GalNAc
Procedure, shortened: as §1

[27] = target: Fuc(a1-3)[Gal(b1-4)]GlcNAc(b1-6)[Gal(b1-3)GlcNAc(b1-3)]Gal(b1-4)Glc
Procedure, shortened: as §1

[28] = target: Fuc(a1-3)[Gal(b1-4)]GlcNAc6S
Procedure, shortened: as §1

[29] = target: Fuc(a1-3)[Gal3S(b1-4)]Glc
Procedure, shortened: as §1

[30] = target: Fuc(a1-3)[Gal3S(b1-4)]GlcNAc
Procedure, shortened: as §1

[31] = target: Fuc(a1-3)[Gal3S(b1-4)]GlcNAc6S
Procedure, shortened: as §1

[32] = target: Fuc(a1-3)[GalNAc(b1-4)]GlcNAc
Procedure, shortened: as §1

[33] = target: Fuc(a1-3)[GalNAc(b1-4)]GlcNAc6S
Procedure, shortened: as §1

Fuc(a1-4)GlcNAc = target: Fuc(a1-4)GlcNAc
Procedure, shortened: as §1

Fuc(b1-3)GlcNAc = target: Fuc(b1-3)GlcNAc
Procedure, shortened: as §1

Gal(a1-2)Gal = target: Gal(a1-2)Gal
Procedure, shortened: as §1

B1: CC1G-11630 (Coprinopsis cinerea), A8P462 (protein)
chain: MTTEAKIKLKAVVYWELVFDYDNSSNTGEITQSYTVKISQTSTRSTFASEVSTTTIDTLTKNNQEVDVGASYGAISANVSASWEHSEEVNNMLEKTTQTSTEDTYTVETEETRSYTIGPGGMLSLFQKHFSGPGMHVAFDVFTTDLELAKERTEIDIDVDVEAIRFVREIRVVYTDIMSEAPGDHVREINGKNPDINYGFNGKFVWLVPEQTRKTAQALTNVEFVSQAESDDRYWDLAAGAGGSNRYLIPVYDTNNKDKIYELALWRSDSYITHDKVKAAGWSGTTGDINSGRGGTYLNLVWKTRHAY
glycan array binding signal (z-score) [1]: 0.144
glycan array binding signal (z-score) [2]: -0.233
glycan array binding signal (z-score) [3]: -0.143
glycan array binding signal (z-score) [4]: -0.601
glycan array binding signal (z-score) [5]: -0.807
glycan array binding signal (z-score) [6]: -0.357
glycan array binding signal (z-score) [7]: 1
glycan array binding signal (z-score) [8]: -0.726
glycan array binding signal (z-score) [9]: -0.061
glycan array binding signal (z-score) [10]: -0.266
glycan array binding signal (z-score) [11]: 0.164
glycan array binding signal (z-score) [12]: -0.842
glycan array binding signal (z-score) [13]: -0.42
glycan array binding signal (z-score) [14]: 0.132
glycan array binding signal (z-score) [15]: -0.63
glycan array binding signal (z-score) [16]: -0.342
glycan array binding signal (z-score) (Fuc(a1-3)GlcNAc): -0.254
glycan array binding signal (z-score) [17]: 0.657
glycan array binding signal (z-score) [18]: -0.213
glycan array binding signal (z-score) [19]: 0.267
glycan array binding signal (z-score) [20]: -0.255
glycan array binding signal (z-score) [21]: -0.199
glycan array binding signal (z-score) [22]: -0.651
glycan array binding signal (z-score) [23]: -0.123
glycan array binding signal (z-score) [24]: 0.366
glycan array binding signal (z-score) [25]: -0.182
glycan array binding signal (z-score) [26]: 0.318
glycan array binding signal (z-score) [27]: -0.585
glycan array binding signal (z-score) [28]: -0.085
glycan array binding signal (z-score) [29]: 0.09
glycan array binding signal (z-score) [30]: 0.48
glycan array binding signal (z-score) [31]: 0.066
glycan array binding signal (z-score) [32]: 0.28
glycan array binding signal (z-score) [33]: 0.139
glycan array binding signal (z-score) (Fuc(a1-4)GlcNAc): -0.863
glycan array binding signal (z-score) (Fuc(b1-3)GlcNAc): -0.161
glycan array binding signal (z-score) (Gal(a1-2)Gal): -0.636
